From the supplement of paper PMC9151546
Repeats are few or missing, and single values can be far off.

Legend:
CHO-K1 [1] = assay: hypodiploid nuclei frequency (% of nucleated events); higher = more hypodiploid events (aneugenic)
CHO-K1 [2] = assay: micronucleus frequency (% of nucleated events); higher = more micronuclei (genotoxic)
CHO-K1 [3] = assay: relative survival (nuclei to bead ratio vs DMSO control) (% of vehicle control); higher = more surviving cells
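Wherever hypodiploid nuclei frequency (% of nucleated events) is given: hypodiploid nuclei gated on a flow cytometer with 488 nm excitation after SYTOX Green staining, cultures at 37 °C, positive controls vinblastine without S9 and cyclophosphamide with S9.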
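Wherever micronucleus frequency (% of nucleated events) is given: cells lysed with nuclei stained by SYTOX Green, then micronucleus-gated events counted against nucleated events by flow cytometry with 488 nm excitation.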
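Wherever relative survival (nuclei to bead ratio vs DMSO control) is given: Lysed-cell nuclei stained with SYTOX Green and counted against counting beads by flow cytometry at 488 nm excitation, with vinblastine (no S9) and cyclophosphamide (plus S9) as positive controls.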

ClC1(Cl)C2(Cl)C3(Cl)C4(Cl)C(Cl)(Cl)C5(Cl)C3(Cl)C1(Cl)C5(Cl)C24Cl (stereo unspecified) [Mirex]
Conditions | hypodiploid nuclei frequency, CHO-K1 [1] [%] | micronucleus frequency, CHO-K1 [2] [%] | relative survival, CHO-K1 [3]
concentration: 4.5 (µM), S9 metabolic activation: with S9, exposure time: 3-4 hours | 0.24 | 1.24 | 98.6
concentration: 4.5 (µM), S9 metabolic activation: without S9, exposure time: 24 hours | 0.56 | 1.68 | 117
concentration: 5.63 (µM), S9 metabolic activation: with S9, exposure time: 3-4 hours | 0.28 | 1.1 | 70.5
concentration: 5.63 (µM), S9 metabolic activation: without S9, exposure time: 24 hours | 0.48 | 1.24 | 100
concentration: 7.04 (µM), S9 metabolic activation: with S9, exposure time: 3-4 hours | 0.1 | 1.36 | 71.7
concentration: 7.04 (µM), S9 metabolic activation: without S9, exposure time: 24 hours | 0.54 | 1.38 | 134
concentration: 8.8 (µM), S9 metabolic activation: with S9, exposure time: 3-4 hours | 0.22 | 1.16 | 94.2
concentration: 8.8 (µM), S9 metabolic activation: without S9, exposure time: 24 hours | 0.48 | 1.26 | 119
concentration: 11 (µM), S9 metabolic activation: with S9, exposure time: 3-4 hours | 0.34 | 1.22 | 79.3
concentration: 11 (µM), S9 metabolic activation: without S9, exposure time: 24 hours | 0.8 | 1.56 | 98.6
concentration: 13.7 (µM), S9 metabolic activation: with S9, exposure time: 3-4 hours | 0.12 | 1.32 | 78.3
concentration: 13.7 (µM), S9 metabolic activation: without S9, exposure time: 24 hours | 0.76 | 1.34 | 95.1
concentration: 17.2 (µM), S9 metabolic activation: with S9, exposure time: 3-4 hours | 0.26 | 1.14 | 72.9
concentration: 17.2 (µM), S9 metabolic activation: without S9, exposure time: 24 hours | 0.66 | 1.18 | 113
concentration: 21.5 (µM), S9 metabolic activation: with S9, exposure time: 3-4 hours | 0.3 | 0.9 | 77.1
concentration: 21.5 (µM), S9 metabolic activation: without S9, exposure time: 24 hours | 0.72 | 1.3 | 109
concentration: 26.8 (µM), S9 metabolic activation: with S9, exposure time: 3-4 hours | 0.34 | 2.16 | 77.1
concentration: 26.8 (µM), S9 metabolic activation: without S9, exposure time: 24 hours | 0.8 | 1.86 | 102
concentration: 33.6 (µM), S9 metabolic activation: with S9, exposure time: 3-4 hours | 0.2 | 2.38 | 82.1
concentration: 33.6 (µM), S9 metabolic activation: without S9, exposure time: 24 hours | 0.8 | 1.9 | 105
concentration: 41.9 (µM), S9 metabolic activation: with S9, exposure time: 3-4 hours | 0.38 | 2.22 | 76.2
concentration: 41.9 (µM), S9 metabolic activation: without S9, exposure time: 24 hours | 0.8 | 1.62 | 112
concentration: 52.4 (µM), S9 metabolic activation: with S9, exposure time: 3-4 hours | 0.36 | 2.04 | 67.5
concentration: 52.4 (µM), S9 metabolic activation: without S9, exposure time: 24 hours | 0.72 | 1.76 | 105
concentration: 65.5 (µM), S9 metabolic activation: with S9, exposure time: 3-4 hours | 0.1 | 1.22 | 86.2
concentration: 65.5 (µM), S9 metabolic activation: without S9, exposure time: 24 hours | 0.98 | 2.6 | 94.7
concentration: 81.9 (µM), S9 metabolic activation: with S9, exposure time: 3-4 hours | 0.16 | 1.14 | 79.8
concentration: 81.9 (µM), S9 metabolic activation: without S9, exposure time: 24 hours | 1.04 | 2.72 | 102
concentration: 102 (µM), S9 metabolic activation: with S9, exposure time: 3-4 hours | 0.34 | 1.88 | 71.7
concentration: 102 (µM), S9 metabolic activation: without S9, exposure time: 24 hours | 1.14 | 2.6 | 104
concentration: 128 (µM), S9 metabolic activation: with S9, exposure time: 3-4 hours | 0.08 | 1.22 | 67.3
concentration: 128 (µM), S9 metabolic activation: without S9, exposure time: 24 hours | 1.12 | 2.08 | 89.9
concentration: 160 (µM), S9 metabolic activation: with S9, exposure time: 3-4 hours | 0.22 | 1.6 | 46.3
concentration: 160 (µM), S9 metabolic activation: without S9, exposure time: 24 hours | 1.26 | 2.58 | 107
concentration: 200 (µM), S9 metabolic activation: with S9, exposure time: 3-4 hours | 0.22 | 1.58 | 58.9
concentration: 200 (µM), S9 metabolic activation: without S9, exposure time: 24 hours | 1.24 | 2.34 | 102

Cc1ccc(N(C)C)cc1 [N,N,4-Trimethylaniline]
Conditions | hypodiploid nuclei frequency, CHO-K1 [1] [%] | micronucleus frequency, CHO-K1 [2] [%] | relative survival, CHO-K1 [3]
concentration: 4.5 (µM), S9 metabolic activation: with S9, exposure time: 3-4 hours | 0.16 | 0.9 | 138
concentration: 4.5 (µM), S9 metabolic activation: without S9, exposure time: 24 hours | 0.92 | 2.18 | 154
concentration: 5.63 (µM), S9 metabolic activation: with S9, exposure time: 3-4 hours | 0.3 | 1.3 | 120
concentration: 5.63 (µM), S9 metabolic activation: without S9, exposure time: 24 hours | 0.78 | 1.64 | 138
concentration: 7.04 (µM), S9 metabolic activation: with S9, exposure time: 3-4 hours | 0.16 | 1.06 | 139
concentration: 7.04 (µM), S9 metabolic activation: without S9, exposure time: 24 hours | 1.02 | 1.8 | 132
concentration: 8.8 (µM), S9 metabolic activation: with S9, exposure time: 3-4 hours | 0.12 | 1.2 | 171
concentration: 8.8 (µM), S9 metabolic activation: without S9, exposure time: 24 hours | 0.7 | 1.7 | 185
concentration: 11 (µM), S9 metabolic activation: with S9, exposure time: 3-4 hours | 0.2 | 1.16 | 164
concentration: 11 (µM), S9 metabolic activation: without S9, exposure time: 24 hours | 0.8 | 2.3 | 163
concentration: 13.7 (µM), S9 metabolic activation: with S9, exposure time: 3-4 hours | 0.16 | 0.76 | 153
concentration: 13.7 (µM), S9 metabolic activation: without S9, exposure time: 24 hours | 0.64 | 1.78 | 147
concentration: 17.2 (µM), S9 metabolic activation: with S9, exposure time: 3-4 hours | 0.2 | 1.1 | 147
concentration: 17.2 (µM), S9 metabolic activation: without S9, exposure time: 24 hours | 0.82 | 1.84 | 140
concentration: 21.5 (µM), S9 metabolic activation: with S9, exposure time: 3-4 hours | 0.12 | 0.94 | 175
concentration: 21.5 (µM), S9 metabolic activation: without S9, exposure time: 24 hours | 0.72 | 1.6 | 169
concentration: 26.8 (µM), S9 metabolic activation: with S9, exposure time: 3-4 hours | 0.12 | 1.16 | 147
concentration: 26.8 (µM), S9 metabolic activation: without S9, exposure time: 24 hours | 1.16 | 1.78 | 110
concentration: 33.6 (µM), S9 metabolic activation: with S9, exposure time: 3-4 hours | 0.2 | 1.1 | 120
concentration: 33.6 (µM), S9 metabolic activation: without S9, exposure time: 24 hours | 0.92 | 2.22 | 129
concentration: 41.9 (µM), S9 metabolic activation: with S9, exposure time: 3-4 hours | 0.2 | 1.26 | 165
concentration: 41.9 (µM), S9 metabolic activation: without S9, exposure time: 24 hours | 1.26 | 1.74 | 132
concentration: 52.4 (µM), S9 metabolic activation: with S9, exposure time: 3-4 hours | 0.2 | 1.16 | 141
concentration: 52.4 (µM), S9 metabolic activation: without S9, exposure time: 24 hours | 1.28 | 1.96 | 126
concentration: 65.5 (µM), S9 metabolic activation: with S9, exposure time: 3-4 hours | 0.28 | 1.28 | 182
concentration: 65.5 (µM), S9 metabolic activation: without S9, exposure time: 24 hours | 1.16 | 1.76 | 118
concentration: 81.9 (µM), S9 metabolic activation: with S9, exposure time: 3-4 hours | 0.28 | 1.2 | 182
concentration: 81.9 (µM), S9 metabolic activation: without S9, exposure time: 24 hours | 0.78 | 1.64 | 109
concentration: 102 (µM), S9 metabolic activation: with S9, exposure time: 3-4 hours | 0.24 | 1.58 | 162
concentration: 102 (µM), S9 metabolic activation: without S9, exposure time: 24 hours | 1.18 | 1.86 | 151
concentration: 128 (µM), S9 metabolic activation: with S9, exposure time: 3-4 hours | 0.16 | 1.4 | 162
concentration: 128 (µM), S9 metabolic activation: without S9, exposure time: 24 hours | 1.22 | 2.28 | 133
concentration: 160 (µM), S9 metabolic activation: with S9, exposure time: 3-4 hours | 0.26 | 1.48 | 200
concentration: 160 (µM), S9 metabolic activation: without S9, exposure time: 24 hours | 1.28 | 2.44 | 119
concentration: 200 (µM), S9 metabolic activation: with S9, exposure time: 3-4 hours | 0.18 | 1.48 | 179
concentration: 200 (µM), S9 metabolic activation: without S9, exposure time: 24 hours | 1.68 | 2.86 | 109
